For the assay, the target named is T1, mouse secretagogin (mouse, UniProt Q91WD9 1-276).
T1 construct: mouse secretagogin, the three-domain protein (domains A, B, C); construct in Dataset S1; also called mSCGN; SCGN; source: recombinant, produced and purified; E. coli BL21(DE3) named for the pull-down constructs
T1 sequence (looked up): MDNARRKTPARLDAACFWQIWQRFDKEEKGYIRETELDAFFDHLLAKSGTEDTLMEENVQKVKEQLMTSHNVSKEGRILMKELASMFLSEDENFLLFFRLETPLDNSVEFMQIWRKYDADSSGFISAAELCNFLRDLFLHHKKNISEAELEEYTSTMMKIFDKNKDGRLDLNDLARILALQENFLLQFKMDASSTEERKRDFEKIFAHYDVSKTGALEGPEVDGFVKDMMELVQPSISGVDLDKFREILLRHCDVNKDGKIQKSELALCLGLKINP
Put plainly: ITC; in the presence of Ca2+. The following applies: both partners purified. For orientation: In ITC the heat of successive injections is recorded.

B1: C-terminal SNARE domain of mouse SNAP-25 (domain or fragment)
chain: not shown
notes: mouse SNAP-25, C-terminal SNARE domain (helix), identical in SNAP25-1 and SNAP25-2; limits in Dataset S1; The pull-down fragments are said to derive from isoform-2; also called SNAP-25c; SNAP-25C; source: recombinant; E. coli BL21(DE3) named for the pull-down constructs
On to B1, for which the Kd (as a rule, the free concentration of one partner at which half of the binding sites on the other are occupied at equilibrium, for simple one-to-one binding) is approximately 0.008 µM.

B2: mouse SNAP-25 isoform 2 (natural protein)
chain: not shown
notes: mouse SNAP-25-2; construct in Dataset S1; Construct limits are in Dataset S1; also called SNAP25-2; SNAP-25-2; source: recombinant, produced and purified
With B2, the Kd is approximately 0.032 µM.
